Read counts are not given, so values of variants with three or more changes are uncertain.
B1: LINE1-mini (parent)
chain: GGCAGAGCUCAACACAGCGUGGCAAAGUGGCUGUGGCUAGACUGCC

Variants of: B1
Experiment: self-cleavage, relative activity (ratio to wild type); higher = more cleavage; in vitro, sequencing; the parent is a self-cleaving ribozyme

| Variant | self-cleavage |
| --- | --- |
| G5U C23A U38G | 0.01 |
| G5U C13A A14G G35A | 0.08 |
| G5U C18U G22C | 0.04 |
| G5U C13U C31A G35A G36C A39G | 0.06 |
| G5U G7C A25C | 0.02 |
| G5U C10A A11C | 0.04 |
| G5U C13U C31A | 0.02 |
| G5U C10A G33A G44U | 0.02 |
| G5U U9A A14U G17U A24G G35U | 0.11 |
| G5U U9C C18G A41U | 0.08 |
| G5U C10G C15A G35C U38A | 0 |
| G5U C18G G29U C42A | 0.07 |
| G5U C10A A16C G22U A26U G27A | 0.01 |
| G5U G17A C18A G19A G29U | 0.05 |
| G5U G22U C37A G40A G44A | 0.02 |
| G5U G29C G40C C42U | 0.01 |
| G5U C10U C31A | 0.02 |
| G5U U9G G17U G27C G33A | 0.12 |
| G5U G7A C10A U38A A41C | 0.04 |
| G5U C23G C42G | 0.09 |
| G5U G7C U9G C15U G44A | 0.22 |
| G5U C8U C15A C31U | 0.15 |
| G5U G17A U32C | 0.06 |
| G5U C31U G35A C45U | 0.01 |

| Variant | self-cleavage |
| --- | --- |
| G5U C8U A11C G30C | 0 |
| G5U C18U A39C | 0.05 |
| G5U C10G A12G C37A | 0 |
| G5U G7U C31U U38A | 0.04 |
| G5U G27A G33C | 0.09 |
| G5U C15U A25G | 0.13 |
| G5U G19A G22U A24C G30A U32C C45G | 0.02 |
| G5U G7C C13G | 0.07 |
| G5U G21U G22A | 0.1 |
| G5U G7C G21U A24C | 0.11 |
| G5U C15A A24G G29C | 0.03 |
| G5U C13U C18G C37A U38A U43A | 0.02 |
| G5U C15U G22C U28C U32G A39C | 0.01 |
| G5U G7U G35C | 0.13 |
| G5U G17A A25C C31A | 0.01 |
| G5U G22C G27C G35U | 0.02 |
| G5U C10A C13U G22U C37U | 0.03 |
| G5U G19A C31A G35A U43G | 0 |
| G5U C10G G22U A26U | 0.02 |
| G5U G22C G40C | 0.01 |
| G5U G17U U38G | 0.02 |
| G5U G36A C45A | 0 |
| G5U U9A A14U C31U U38A A41C C42A | 0.02 |
| G5U U9A C46A | 0.12 |

| Variant | self-cleavage |
| --- | --- |
| G5U G17U G30U C42U | 0.03 |
| G5U G27U C42A C46U | 0.13 |
| G5U G29C G36U A41G | 0.02 |
| G5U C10A G19C G22A G30A C42A | 0.01 |
| G5U C10A A12C A24G C31U | 0 |
| G5U C10G C31G U34A | 0.02 |
| G5U G19C G27U | 0.03 |
| G5U U9A U43A | 0.16 |
| G5U G40U A41G | 0.09 |
| G5U C15A G17A C23A G30A G35C G40A | 0.06 |
| G5U G21A G27U U34A | 0.2 |
| G5U U9G U32G A39G | 0.07 |
| G5U C10U C13U A14C | 0.02 |
| G5U G7C C15A | 0.07 |
| G5U C10G U28A G29U | 0.03 |
| G5U C10A C13A G17U G29U A41C | 0.01 |
| G5U G21A C45A | 0.08 |
| G5U C10A G21A G29C | 0.58 |
| G5U C15U G17C U20G | 0.03 |
| G5U G17U G30C | 0.13 |
| G5U C23G C31A | 0.01 |
| G5U C10A C37U | 0.02 |
| G5U G19A G21U | 0.04 |
| G5U U9G G17U G22A A41U C45G | 0.03 |

| Variant | self-cleavage |
| --- | --- |
| G5U G35U G40A | 0.02 |
| G5U C8U U20C G40U | 0.02 |
| G5U G22A G33A G35A | 0.05 |
| G5U G7C G21C A39U | 0.03 |
| G5U C15A C37U | 0.02 |
| G5U G29U U32G C46G | 0 |
| G5U U9A A11G U20C C37G | 0 |
| G5U C15A C23G U38C G40C | 0.02 |
| G5U C18U G27A G35A | 0.09 |
| G5U C23A G33U G35U | 0.02 |
| G5U G21U U34A | 0.04 |
| G5U G7C C13A G33U | 0.05 |
| G5U G33U A41U | 0.05 |
| G5U C15G U38A U43A | 0.01 |
| G5U C13G G19A A39G | 0.26 |
| G5U C15U A16C G21U A24G | 0.04 |
| G5U U9A C15U | 0.06 |
| G5U U9G U34A G35U | 0.14 |
| G5U G29U C45G | 0.03 |
| G5U G17U U28C | 0.06 |
| G5U G30C C31U | 0.03 |
| G5U G30C C31A | 0.08 |
| G5U U9G C15A C18A G19C G44A | 0.14 |
| G5U C31U C37A | 0.07 |

| Variant | self-cleavage |
| --- | --- |
| G5U U9C G36C G40U | 0.02 |
| G5U G30A C45G C46U | 0.19 |
| G5U C18A G30U | 0.05 |
| G5U C15A U20A G36A | 0.05 |
| G5U U20C C23U G27A U28A C31G U34A | 0.01 |
| G5U C18G G19C G30A C45G | 0.05 |
| G5U G7A C18A | 0.04 |
| G5U G7U G40A | 0.38 |
| G5U G19U C42G | 0.02 |
| G5U C18U C31A | 0.02 |
| G5U C15U A26G U38C C46U | 0.02 |
| G5U G27C C42G | 0.03 |
| G5U C10U C18U G19U | 0.03 |
| G5U C18U G27U G40A A41C | 0.01 |
| G5U C15U G27C U34A | 0.03 |
| G5U C8G U20A | 0 |
| G5U C15A A16C | 0.02 |
| G5U C10A A16C C42U | 0.01 |
| G5U U9A A11C G21C | 0.06 |
| G5U G35C A39G | 0.05 |
| G5U C13A A25G | 0.02 |
| G5U G22A G36A C37U | 0.01 |
| G5U G19U U32A A39C G40A | 0 |
| G5U G35C G40C A41U | 0.12 |

| Variant | self-cleavage |
| --- | --- |
| G5U U9C A14U U34G G40U C42U | 0.02 |
| G5U C15G U20A G36U C46A | 0.04 |
| G5U C23U C31U G33U | 0.07 |
| G5U G7U C18A G40C | 0.08 |
| G5U C8U G33C | 0.09 |
| G5U G30U C31A | 0.03 |
| G5U G17C A41U | 0.03 |
| G5U C10A G17U G22U U32A | 0.03 |
| G5U C10G C18U | 0.05 |
| G5U G30U U38A | 0.05 |
| G5U C8G G30A U32C | 0.07 |
| G5U C13U G17A A41C | 0.01 |
| G5U G27C C31G C45U | 0.01 |
| G5U G22A A25U | 0.07 |
| G5U G7A C23G G33C C37G | 0.05 |
| G5U G35U C45A | 0.05 |
| G5U C15G G22A G30U C37G | 0.06 |
| G5U G40C C46G | 0.18 |
| G5U U9C C31U U32G G35A A39G | 0.03 |
| G5U U9C G22U | 0.04 |
| G5U U9C G22C | 0.01 |
| G5U C15A A24U | 0.06 |
| G5U U20C C23G G30A | 0.15 |
| G5U C23G C46G | 0.2 |

| Variant | self-cleavage |
| --- | --- |
| G5U C13U G35A C37A U38G | 0.02 |
| G5U C8U G40C G44A | 0.01 |
| G5U G22A A24U | 0.11 |
| G5U G7C A14C C37U | 0.03 |
| G5U U9C C13A G36C G40U C42A | 0.01 |
| G5U C15G G21A C23U G35U | 0.04 |
| G5U G17C G30C C42U G44U | 0.06 |
| G5U G17U U38A U43A | 0.12 |
| G5U U9A G21U | 0.1 |
| G5U G7C C8A | 0.49 |
| G5U C15A G36U G44A | 0.02 |
| G5U G40U C46G | 0.05 |
| G5U G19C U32C | 0.02 |
| G5U C13A G27C G30U | 0.14 |
| G5U C31A U32A G40U | 0.02 |
| G5U G7A C42U | 0.77 |
| G5U C8U C15G C23U U32A C45U | 0.11 |
| G5U C10U G33C U43C | 0.01 |
| G5U C23A G40A | 0.12 |
| G5U U9G C23U A26C G30A C31U G36C C45A | 0.29 |
| G5U C13U G19A U20C G22U U28G | 0.01 |
| G5U C23A G36U | 0.06 |
| G5U C13U G17U G21C C45A C46G | 0.02 |

From the RNAGym collection of RNA variant scans (doi:10.7554/elife.90254)
